Laboratory results published in publication PMC10991417.
No constants are given. Whether binding was seen depends on the method and setting. Some binding calls cover weakened binding; strength is not graded here. For part of these data: Sequences can lack the tags named with a protein.

Sequences of proteins named here, by UniProt entry; tags and fusion partners are left off. A change or cut given only in a name is not applied to a line headed by its entry.
UniProt A8DY81: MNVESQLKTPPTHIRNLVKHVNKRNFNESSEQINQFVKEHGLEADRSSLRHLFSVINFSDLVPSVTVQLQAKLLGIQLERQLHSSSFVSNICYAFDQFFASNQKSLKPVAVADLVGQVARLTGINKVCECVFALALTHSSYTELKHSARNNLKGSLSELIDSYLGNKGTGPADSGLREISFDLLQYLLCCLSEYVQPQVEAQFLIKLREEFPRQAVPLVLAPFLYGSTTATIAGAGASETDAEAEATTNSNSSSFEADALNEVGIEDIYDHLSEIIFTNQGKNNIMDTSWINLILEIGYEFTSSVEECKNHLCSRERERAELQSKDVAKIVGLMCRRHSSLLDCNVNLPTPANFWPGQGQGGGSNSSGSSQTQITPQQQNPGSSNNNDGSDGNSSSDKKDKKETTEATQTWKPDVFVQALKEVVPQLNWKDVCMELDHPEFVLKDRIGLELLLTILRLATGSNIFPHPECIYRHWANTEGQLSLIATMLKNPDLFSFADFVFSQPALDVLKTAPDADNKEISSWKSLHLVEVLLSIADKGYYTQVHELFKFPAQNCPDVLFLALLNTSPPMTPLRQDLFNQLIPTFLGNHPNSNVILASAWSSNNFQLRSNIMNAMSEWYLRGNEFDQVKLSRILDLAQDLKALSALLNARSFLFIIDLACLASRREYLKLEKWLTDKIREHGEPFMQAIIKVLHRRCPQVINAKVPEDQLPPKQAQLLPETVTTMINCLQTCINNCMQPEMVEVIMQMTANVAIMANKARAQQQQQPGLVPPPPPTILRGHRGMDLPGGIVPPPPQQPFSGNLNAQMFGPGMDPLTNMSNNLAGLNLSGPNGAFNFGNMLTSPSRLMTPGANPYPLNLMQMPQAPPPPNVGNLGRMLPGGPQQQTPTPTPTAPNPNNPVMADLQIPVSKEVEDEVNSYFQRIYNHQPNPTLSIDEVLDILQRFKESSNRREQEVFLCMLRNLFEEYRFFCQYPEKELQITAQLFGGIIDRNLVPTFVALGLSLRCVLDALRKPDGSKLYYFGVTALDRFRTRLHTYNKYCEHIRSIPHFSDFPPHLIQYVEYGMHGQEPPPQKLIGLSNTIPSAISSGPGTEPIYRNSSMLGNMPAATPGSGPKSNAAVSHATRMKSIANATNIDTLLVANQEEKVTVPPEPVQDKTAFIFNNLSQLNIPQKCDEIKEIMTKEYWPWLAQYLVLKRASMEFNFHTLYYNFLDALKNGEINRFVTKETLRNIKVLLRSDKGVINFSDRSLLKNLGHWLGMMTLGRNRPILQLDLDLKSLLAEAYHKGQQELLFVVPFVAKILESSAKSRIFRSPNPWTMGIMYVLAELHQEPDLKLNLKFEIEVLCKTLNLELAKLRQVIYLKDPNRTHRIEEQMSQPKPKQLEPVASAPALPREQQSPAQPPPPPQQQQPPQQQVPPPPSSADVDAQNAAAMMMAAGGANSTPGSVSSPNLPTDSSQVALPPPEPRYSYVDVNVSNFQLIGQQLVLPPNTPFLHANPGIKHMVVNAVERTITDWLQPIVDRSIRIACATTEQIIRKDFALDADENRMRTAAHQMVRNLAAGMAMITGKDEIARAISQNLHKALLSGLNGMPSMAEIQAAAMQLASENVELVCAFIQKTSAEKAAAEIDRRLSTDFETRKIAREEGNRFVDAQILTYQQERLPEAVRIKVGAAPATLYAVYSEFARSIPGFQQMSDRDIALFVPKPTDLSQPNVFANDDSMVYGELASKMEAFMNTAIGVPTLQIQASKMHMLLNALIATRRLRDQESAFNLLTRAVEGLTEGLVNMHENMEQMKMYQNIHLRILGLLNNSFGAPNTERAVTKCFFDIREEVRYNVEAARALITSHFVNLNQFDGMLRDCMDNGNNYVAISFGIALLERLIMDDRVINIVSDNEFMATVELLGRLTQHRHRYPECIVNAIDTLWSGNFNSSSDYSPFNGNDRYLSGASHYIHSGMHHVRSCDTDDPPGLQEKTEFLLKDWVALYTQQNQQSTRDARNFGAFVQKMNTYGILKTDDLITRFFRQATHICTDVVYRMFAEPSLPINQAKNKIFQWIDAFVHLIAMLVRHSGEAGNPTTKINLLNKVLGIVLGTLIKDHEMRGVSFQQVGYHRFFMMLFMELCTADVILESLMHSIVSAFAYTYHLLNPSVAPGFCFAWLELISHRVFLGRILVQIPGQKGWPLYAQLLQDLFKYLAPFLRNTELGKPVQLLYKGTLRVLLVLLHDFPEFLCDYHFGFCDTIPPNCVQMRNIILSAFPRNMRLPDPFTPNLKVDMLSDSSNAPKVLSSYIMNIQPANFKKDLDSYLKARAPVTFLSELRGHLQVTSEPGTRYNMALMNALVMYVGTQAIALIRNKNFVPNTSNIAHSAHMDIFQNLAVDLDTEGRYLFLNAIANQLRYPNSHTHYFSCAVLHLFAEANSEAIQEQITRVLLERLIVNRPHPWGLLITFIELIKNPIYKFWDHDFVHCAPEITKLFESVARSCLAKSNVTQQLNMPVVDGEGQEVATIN
UniProt Q7K126: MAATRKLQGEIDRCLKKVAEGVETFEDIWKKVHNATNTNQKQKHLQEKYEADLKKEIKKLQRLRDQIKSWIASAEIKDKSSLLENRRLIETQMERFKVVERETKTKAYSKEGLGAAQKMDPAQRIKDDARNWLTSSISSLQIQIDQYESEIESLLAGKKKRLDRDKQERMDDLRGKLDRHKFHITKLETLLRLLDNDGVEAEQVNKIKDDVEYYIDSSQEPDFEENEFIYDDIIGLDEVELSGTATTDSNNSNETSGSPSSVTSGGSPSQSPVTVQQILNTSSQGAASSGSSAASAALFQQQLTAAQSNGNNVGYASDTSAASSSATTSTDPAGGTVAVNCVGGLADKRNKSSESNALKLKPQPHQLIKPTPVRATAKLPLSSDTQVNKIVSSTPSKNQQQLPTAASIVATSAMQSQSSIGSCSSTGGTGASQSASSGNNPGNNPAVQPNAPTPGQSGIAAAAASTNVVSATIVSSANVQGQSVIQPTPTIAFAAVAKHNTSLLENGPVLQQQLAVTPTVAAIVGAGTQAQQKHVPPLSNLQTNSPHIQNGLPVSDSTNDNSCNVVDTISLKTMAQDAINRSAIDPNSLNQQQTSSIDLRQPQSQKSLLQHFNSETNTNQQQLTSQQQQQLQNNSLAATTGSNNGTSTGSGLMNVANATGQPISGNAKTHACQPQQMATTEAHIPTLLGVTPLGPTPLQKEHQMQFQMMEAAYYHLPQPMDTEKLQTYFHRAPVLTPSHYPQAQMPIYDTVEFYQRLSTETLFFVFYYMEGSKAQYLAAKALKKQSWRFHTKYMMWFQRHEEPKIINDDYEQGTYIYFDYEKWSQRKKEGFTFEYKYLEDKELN
UniProt Q7JVP2: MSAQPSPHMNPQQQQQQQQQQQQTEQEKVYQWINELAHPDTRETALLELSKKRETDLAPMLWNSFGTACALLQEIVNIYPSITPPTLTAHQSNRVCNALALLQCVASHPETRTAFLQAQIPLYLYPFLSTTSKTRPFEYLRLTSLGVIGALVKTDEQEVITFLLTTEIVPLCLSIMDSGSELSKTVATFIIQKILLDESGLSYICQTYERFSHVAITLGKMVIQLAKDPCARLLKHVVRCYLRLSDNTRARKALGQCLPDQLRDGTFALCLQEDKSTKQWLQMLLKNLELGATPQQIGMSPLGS

What was measured:
[1] = biological target: NOT1 (Drosophila CCR4-NOT complex subunit) (Drosophila) (UniProt A8DY81); assay: ReLo relocalization assay (live-cell confocal fluorescence microscopy); pairwise; one partner anchored to the plasma membrane by the PH domain of rat PLCδ1 and fused to mCherry, the other fused to EGFP/mEGFP; S2R+ cells cotransfected with two plasmids, imaged after 48 h at 25 °C
[2] = biological target: NOT3, split-ubiquitin membrane yeast two-hybrid (MYTH) fusion (Drosophila) (UniProt Q7K126); assay: two-hybrid; split-ubiquitin-based membrane yeast two-hybrid (MYTH); pPR3-N and pDHB1 vectors cotransformed into NMY51 yeast; spotting on SDC lacking leucine, tryptophan, adenine and histidine, six days at 30 °C
[3] = biological target: NOT1 (Drosophila CCR4-NOT complex subunit) (Drosophila) (UniProt A8DY81); assay: ReLo relocalization assay (live-cell confocal fluorescence microscopy); pairwise; membrane anchor (PH or OST4) and which partner was anchored are not given; S2R+ cells cotransfected with two plasmids, imaged after 48 h at 25 °C
[4] = biological target: T1, NOT2 (Drosophila CCR4-NOT complex subunit) (Drosophila) (UniProt Q94547); assay: as above
T1 sequence: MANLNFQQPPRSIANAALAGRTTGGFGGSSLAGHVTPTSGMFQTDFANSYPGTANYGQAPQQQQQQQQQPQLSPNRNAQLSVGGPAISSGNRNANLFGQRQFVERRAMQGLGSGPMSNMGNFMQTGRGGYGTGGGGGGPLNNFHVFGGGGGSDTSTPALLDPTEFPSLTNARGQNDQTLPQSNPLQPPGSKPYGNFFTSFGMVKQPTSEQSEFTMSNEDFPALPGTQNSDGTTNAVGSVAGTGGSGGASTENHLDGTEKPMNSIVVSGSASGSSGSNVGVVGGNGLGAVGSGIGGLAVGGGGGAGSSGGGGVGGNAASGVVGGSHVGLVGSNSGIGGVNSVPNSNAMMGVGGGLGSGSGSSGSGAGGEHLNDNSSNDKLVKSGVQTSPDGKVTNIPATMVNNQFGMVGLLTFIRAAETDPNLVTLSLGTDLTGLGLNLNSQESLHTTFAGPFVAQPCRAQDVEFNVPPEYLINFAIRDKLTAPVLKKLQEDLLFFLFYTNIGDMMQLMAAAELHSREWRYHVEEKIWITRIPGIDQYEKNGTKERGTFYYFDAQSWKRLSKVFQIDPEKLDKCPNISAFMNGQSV

[5] = biological target: CAF40 V186E (CAF40 MUT) (Drosophila) (UniProt Q7JVP2); assay: as above
[6] = biological target: NOT3 (Drosophila CCR4-NOT complex subunit) (Drosophila) (UniProt Q7K126); assay: as above
[7] = biological target: CAF40 (Drosophila CCR4-NOT complex subunit) (Drosophila) (UniProt Q7JVP2); assay: as above

With “CAF40 (Drosophila CCR4-NOT complex subunit) (from UniProt Q7JVP2 1-304)” the binding [1] was “binds”.

With “NOT3 (Drosophila CCR4-NOT complex subunit) (from UniProt Q7K126 1-844)” the binding [1] was “binds”.

B1: NOT2, split-ubiquitin membrane yeast two-hybrid (MYTH) fusion (protein, UniProt Q94547 1-585)
chain: MANLNFQQPPRSIANAALAGRTTGGFGGSSLAGHVTPTSGMFQTDFANSYPGTANYGQAPQQQQQQQQQPQLSPNRNAQLSVGGPAISSGNRNANLFGQRQFVERRAMQGLGSGPMSNMGNFMQTGRGGYGTGGGGGGPLNNFHVFGGGGGSDTSTPALLDPTEFPSLTNARGQNDQTLPQSNPLQPPGSKPYGNFFTSFGMVKQPTSEQSEFTMSNEDFPALPGTQNSDGTTNAVGSVAGTGGSGGASTENHLDGTEKPMNSIVVSGSASGSSGSNVGVVGGNGLGAVGSGIGGLAVGGGGGAGSSGGGGVGGNAASGVVGGSHVGLVGSNSGIGGVNSVPNSNAMMGVGGGLGSGSGSSGSGAGGEHLNDNSSNDKLVKSGVQTSPDGKVTNIPATMVNNQFGMVGLLTFIRAAETDPNLVTLSLGTDLTGLGLNLNSQESLHTTFAGPFVAQPCRAQDVEFNVPPEYLINFAIRDKLTAPVLKKLQEDLLFFLFYTNIGDMMQLMAAAELHSREWRYHVEEKIWITRIPGIDQYEKNGTKERGTFYYFDAQSWKRLSKVFQIDPEKLDKCPNISAFMNGQSV
With B1 the binding [2] was “binds”.

B2: Bag-of-marbles (Bam) (protein, UniProt P22745 1-442)
chain: MLNARDVCPEGNDDQQLDHNFKQMEEHLALMVEGNENEDPRKATCEYEDTNEDGATCTSGVLSEIQENFGRLRLCDVTAPLLEFHGLDCLQQIQKRSRHFAFDGSPAKKSRSGGVLVTGPKQKQLQKENVWNRKSKGSASADNIEKLPITIEKLHMIGLHGDCLEHNAVLRLMNLFRSLHDHLTADLGFSRQNSMPSDYLFDMPVKSTMPKSLNVRYQLQVLCTKVERFLVQQRRTLEANRHFDFEKYDECDKLLKGFASYLDNFKLLLKPKMRNRNGNSGSNADKFHTQRMERLLIGLRDWIKAAHLSVHVFNWEMDLEHRYSGAMTESHKSLNERAILLSGAELRAAEARGISAEDLFIAQRYKLGGPIYCVLEQHEFLSALIANPETYFPPSVVAICGPQKLGAVSMEQPSASEEEFEETEEVPSSPPRHTGRVPRFRS
In the case of B2, the binding [3] is reported as “no binding”, the binding [4] is reported as “no binding” and the binding [5] is reported as “no binding”. The binding [6] was “no binding” and the binding [7] was “binds”.

B3: Nanos (Drosophila) (protein, UniProt P25724 1-401)
chain: MFRSNLEGSGAAAVGVANPPSLAQSGKIFQLQDNFSAFHARGGLNILGLQDMYLDTSGANSSATLSPPITPVTPDPSTSAQSTHFPFLADSAATANSLLMQRQYHYHLLLQQQQQLAMAQHQLALAASAAAASASHQQTDEIARSLKIFAQVTTGAAENAAGSMQDVMQEFATNGYASDDLGRMSYGSAPPQVQMPPQQQHQQQQGLHLPLGRNPAQLQTNGGNLMPIPLATHWLNNYREHLNNVWRNMSYIPAAPNTMGLQAQTAATVSTNLGVGMGLGLPVQGEQLRGASNSSNNNNNNNKVYKRYNSKAKEISRHCVFCENNNEPEAVINSHSVRDNFNRVLCPKLRTYVCPICGASGDSAHTIKYCPKKPIITMEDAIKAESFRLAKSSYYKQQMKV
B3 was tested, and the binding [3] was “binds”, the binding [4] was “no binding” and the binding [5] was “no binding”. The binding [6] was “no binding” and the binding [7] was “binds”.

B4: Bam M24E (Bam MUT) (protein, UniProt P22745 1-442)
chain: MLNARDVCPEGNDDQQLDHNFKQEEEHLALMVEGNENEDPRKATCEYEDTNEDGATCTSGVLSEIQENFGRLRLCDVTAPLLEFHGLDCLQQIQKRSRHFAFDGSPAKKSRSGGVLVTGPKQKQLQKENVWNRKSKGSASADNIEKLPITIEKLHMIGLHGDCLEHNAVLRLMNLFRSLHDHLTADLGFSRQNSMPSDYLFDMPVKSTMPKSLNVRYQLQVLCTKVERFLVQQRRTLEANRHFDFEKYDECDKLLKGFASYLDNFKLLLKPKMRNRNGNSGSNADKFHTQRMERLLIGLRDWIKAAHLSVHVFNWEMDLEHRYSGAMTESHKSLNERAILLSGAELRAAEARGISAEDLFIAQRYKLGGPIYCVLEQHEFLSALIANPETYFPPSVVAICGPQKLGAVSMEQPSASEEEFEETEEVPSSPPRHTGRVPRFRS
In the case of B4, the binding [7] is reported as “no binding”.

B5: Nanos Δ140–160 (protein, UniProt P25724)
chain: MFRSNLEGSGAAAVGVANPPSLAQSGKIFQLQDNFSAFHARGGLNILGLQDMYLDTSGANSSATLSPPITPVTPDPSTSAQSTHFPFLADSAATANSLLMQRQYHYHLLLQQQQQLAMAQHQLALAASAAAASASHQQTAGSMQDVMQEFATNGYASDDLGRMSYGSAPPQVQMPPQQQHQQQQGLHLPLGRNPAQLQTNGGNLMPIPLATHWLNNYREHLNNVWRNMSYIPAAPNTMGLQAQTAATVSTNLGVGMGLGLPVQGEQLRGASNSSNNNNNNNKVYKRYNSKAKEISRHCVFCENNNEPEAVINSHSVRDNFNRVLCPKLRTYVCPICGASGDSAHTIKYCPKKPIITMEDAIKAESFRLAKSSYYKQQMKV
With B5 the binding [7] was “no binding”.
